Measurements taken from article PMC4336329 (PLoS ONE, 2015).
The whole screen tested about 310,000 compounds, of which about 2,200 (0.71%) showed an effect of 50% or more. The effect is printed as a negative number. This is one part of the list.

target: human ether-à-go-go-related gene (hERG) potassium channel (human, UniProt Q12809); test: primary screen, population patch clamp on CHO cells stably expressing hERG
Sequence (Q12809 whole entry, looked up): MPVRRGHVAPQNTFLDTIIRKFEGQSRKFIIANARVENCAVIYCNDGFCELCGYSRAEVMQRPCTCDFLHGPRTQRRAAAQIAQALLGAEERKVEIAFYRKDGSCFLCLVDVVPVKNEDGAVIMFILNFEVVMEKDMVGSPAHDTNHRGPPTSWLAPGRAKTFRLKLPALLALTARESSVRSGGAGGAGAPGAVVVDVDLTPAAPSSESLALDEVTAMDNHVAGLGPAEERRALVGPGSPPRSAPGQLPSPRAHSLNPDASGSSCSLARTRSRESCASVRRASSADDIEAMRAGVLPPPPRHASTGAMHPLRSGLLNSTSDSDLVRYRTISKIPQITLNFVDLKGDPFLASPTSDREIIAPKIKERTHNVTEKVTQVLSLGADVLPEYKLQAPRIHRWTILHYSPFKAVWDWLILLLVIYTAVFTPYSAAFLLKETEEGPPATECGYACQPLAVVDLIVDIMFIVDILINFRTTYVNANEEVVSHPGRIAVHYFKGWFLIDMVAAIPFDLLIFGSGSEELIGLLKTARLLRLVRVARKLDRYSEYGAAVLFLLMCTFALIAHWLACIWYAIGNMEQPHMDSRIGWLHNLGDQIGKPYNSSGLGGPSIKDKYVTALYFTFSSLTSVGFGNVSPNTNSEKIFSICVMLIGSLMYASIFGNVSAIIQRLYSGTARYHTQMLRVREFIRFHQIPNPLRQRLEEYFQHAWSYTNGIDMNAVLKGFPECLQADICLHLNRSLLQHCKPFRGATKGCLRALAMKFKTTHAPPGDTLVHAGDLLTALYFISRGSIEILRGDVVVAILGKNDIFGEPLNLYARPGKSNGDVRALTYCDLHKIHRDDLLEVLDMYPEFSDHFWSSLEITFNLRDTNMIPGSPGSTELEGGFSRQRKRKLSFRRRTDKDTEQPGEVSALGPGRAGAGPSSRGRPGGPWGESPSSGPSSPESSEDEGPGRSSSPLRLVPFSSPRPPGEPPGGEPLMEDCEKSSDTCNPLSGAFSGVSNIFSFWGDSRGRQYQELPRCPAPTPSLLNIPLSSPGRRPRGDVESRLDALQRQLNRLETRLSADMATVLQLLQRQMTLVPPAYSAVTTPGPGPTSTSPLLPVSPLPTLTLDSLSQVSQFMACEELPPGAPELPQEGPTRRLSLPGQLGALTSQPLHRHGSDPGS

Row | SMILES | hERG current change (%, negative = inhibition) at 1uM [%]
1 | CCOc1ccc2c(c1)nc(NCCCO)n2Cc1ccccc1 | -0.641
2 | CC1=C(C(=O)OCc2ccccc2)C(c2ccc([N+](=O)[O-])cc2)NC(=O)N1CCCC(=O)O (stereo not drawn) | 10.8
3 | Cc1nn(C)c(C)c1S(=O)(=O)N1CCCC(C(=O)NCC2COc3ccccc3O2)C1 (stereo not drawn) | 4.83
4 | COc1cc2c(c(OC)c1OC)-c1c(cc3c(c1OC)OCO3)C[C@H](C)[C@@](C)(O)C2 | 17.5
5 | O=C1CCCCCCCN1Cc1ccccc1 | 15.9
6 | C=CCn1cc(C(=O)NCC2CCCO2)c(=O)c2cc(S(=O)(=O)N3CCCCCC3)ccc21 (stereo not drawn) | -4.58
7 | Cc1csc(NC(=O)CSc2nnc(-c3ccncc3)o2)n1 | 11.1
8 | CC(C)NCc1nnc(-c2ccccc2Cl)o1 | 14
9 | CCCNC(=O)COc1coc(CN2CCN(c3ccccc3OC)CC2)cc1=O | -1.03
10 | Cc1ccc(-c2csc3ncnc(N4CCc5ccccc5C4)c23)cc1 | 9.72
11 | Cc1cc(C)nc(NS(=O)(=O)c2ccc(CC(C)C)cc2)c1 | 6.26
12 | Cc1nn(S(=O)(=O)c2cccc([N+](=O)[O-])c2)c(C)c1Br | 15.4
13 | CCOC(=O)C1(CCOc2ccccc2)CCN(Cc2ccncc2)CC1 | -23.5
14 | Cc1ccc(CN2CCN(Cc3cccc(-n4cccn4)c3)CC2CCO)cc1 (stereo not drawn) | -80.1
15 | Cc1nn(CC(=O)NCc2ccccc2)c(=O)c2cccn12 | 7.1
16 | O=C(CSc1ncnc2c1nnn2-c1ccc(F)cc1)NCC1CCCO1 (stereo not drawn) | 9.34
17 | Cc1cc(NC(=O)CS(=O)CC(=O)Nc2c(C)cccc2C)ccc1-n1cnnn1 (stereo not drawn) | 3.63
18 | CCN(CC)S(=O)(=O)c1ccc(OC)c(NC(=O)c2ccc([N+](=O)[O-])cc2)c1 | -21.9
19 | CCOc1ccc(-c2c(C(=O)N/N=C(\C)c3ccco3)nnn2-c2nonc2N)cc1 | 17.1

Row | SMILES | hERG current change (%, negative = inhibition) at 1uM [%]
20 | COc1ccc(CCNC(=O)c2cnc3ccccn3c2=O)cc1 | -1.13
21 | Cc1ccc(NC(=O)COC(=O)CCNS(=O)(=O)c2ccc(C)c(C)c2)cc1 | 7.91
22 | CC1=CC(c2ccccc2)NC(=S)N1 (stereo not drawn) | 8.58
23 | CN1CCN(C(=O)COc2ccc(N(C)S(=O)(=O)c3ccc(F)cc3)cc2)CC1 | 3.8
24 | O=S(=O)(NCc1cc(-c2ccccc2)no1)c1ccc(Cl)cc1 | 13.4
25 | Cc1cc(NC(=O)/C=C/c2cccc(Cl)c2)n(-c2nc3ccccc3[nH]2)n1 | 13.4
26 | N#CC1(C#N)C(C(=O)C23CC4CC(CC(C4)C2)C3)C12CCOCC2 (stereo not drawn) | 6.44
27 | CC(=O)N1CCN(CCS(=O)(=O)c2ccc(Br)cc2)CC1 | 13
28 | O=C(CCS(=O)(=O)c1ccccc1)OCc1ccc([N+](=O)[O-])cc1 | -1.18
29 | COCCN1CCC(CNCc2c(C(=O)N3CCCCC3)nc3c(C)cccn23)C1 (stereo not drawn) | 2.68
30 | Cc1cc(C)c(C(=O)Nc2ccc(S(=O)(=O)Nc3ccccn3)cc2)c(C)c1 | 11.2
31 | Cc1ccc(S(=O)(=O)N2CCN(Cc3ccsc3)CC2)cc1 | 5.13
32 | CCNC(=O)COc1ccc(CC)cc1 | 8.49
33 | c1ccc(OCc2nn3c(Cn4cnc5ccccc54)nnc3s2)cc1 | 6.01
34 | COc1ccc(CCN(C)S(=O)(=O)c2ccc(Cl)nc2)cc1OC | 0.0341
35 | COc1ccc(C(=O)NC(Oc2ccccc2)C(Cl)(Cl)Cl)cc1 (stereo not drawn) | 9.45
36 | CCc1ccc(N2CN=c3s/c(=C\c4ccccc4)c(=O)n3C2)cc1 | 13.3
37 | CC1CN(c2sc(S(C)(=O)=O)nc2S(=O)(=O)c2ccc(Cl)cc2)CC(C)O1 (stereo not drawn) | 16.2
38 | O=C(COC(=O)/C=C/c1ccccc1)NC1CCS(=O)(=O)C1 (stereo not drawn) | 5.3

Row | SMILES | hERG current change (%, negative = inhibition) at 1uM [%]
39 | Cn1cc(CN2CCCC(C(=O)Nc3cccc(-c4cc5ccccc5[nH]4)c3)C2)cn1 (stereo not drawn) | 10.6
40 | O/N=C/c1cc(Br)ccc1OCc1ccccc1F | 4.28
41 | CCN(C(=O)CSc1nc2cc(C(=O)O)ccc2c(=O)n1Cc1ccccc1)c1ccccc1 | 11.6
42 | O=C1/C(=C\c2ccc(Cl)c(Cl)c2)N2CCC1CC2 | 12.2
43 | COc1ccccc1OCCSc1nc2ccc([N+](=O)[O-])cc2s1 | 10.8
44 | O=C(CSc1ccccn1)N1CCCC(Nc2ccc(F)c(F)c2)C1 (stereo not drawn) | 12.3
45 | CSc1ccccc1C(=O)Nc1nc2ccccc2[nH]1 | 6.83
46 | N#Cc1ccccc1Cn1c(=O)oc2ccccc21 | 18.6
47 | Cc1cc2nccc(-c3ccc(F)cc3)n2n1 | 11.9
48 | COc1ccc(N(C(C)C(=O)N/N=C/c2ccc(OCC(C)C)cc2)S(C)(=O)=O)cc1 (stereo not drawn) | 13.9
49 | CCCCn1c(N)c(N(CC(C)C)C(=O)c2ccc(-c3ccc(Cl)cc3)o2)c(=O)[nH]c1=O | 6.83
50 | O=C(NC(=S)Nc1ccccc1[N+](=O)[O-])c1cncc(Br)c1 | 15.7
51 | CCCCN(C)S(=O)(=O)c1c(C)[nH]c(=O)[nH]c1=O | 12.8
52 | C#CCNC(=O)C1=C[C@@H](c2ccc(Br)cc2)C[C@@H](OCCCCO)O1 | 8.59
53 | COC(=O)c1[nH]c2cc(OC)c(OC)cc2c1NC(=O)c1cccc(OC)c1 | -0.376
54 | O=C(CCC(=O)NNC(=O)c1ccc(Cl)cc1Cl)NCc1ccccc1 | 5.65
55 | CN(Cc1ccccc1)C(=O)COC(=O)/C=C/c1ccco1 | 11.9
56 | CCCn1c2c(c(O)c(C(=O)Nc3ccccc3)c1=O)CCCC2 | 15.3
57 | CCOC(=O)c1cc(S(=O)(=O)N2CCN(c3ccccc3OC)CC2)cn1C | 14.8
